# Whole data set: some 2,900 compounds, median “NF-kB SEAP reporter activity, fold change vs agonist alone” near 0.99, cut for the highest 2% near 2.6. Some of the results follow.
# Experiments:
# RAW-Dual [1] = experiment: NF-kB SEAP reporter activity, fold change vs agonist alone; cytotoxicity flag (confluency mask): cytotoxic (confluency <70% of control); higher = enhanced NF-kB activity
# Procedure, shortened: (§1)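 RAW-Dual macrophages were seeded in DMEM at 50,000 cells/well in 384-well plates, given 50 nL of library stock by pin tool, and given a PRR agonist 1 h later. Plates were held at 37 °C, 5% CO2 for 20 hours, after which supernatant was read for IRF by QuantiLuc luminescence and for NF-κB by QuantiBlue absorbance at 620 nm. Reporter activity is expressed as fold change over wells that received agonist alone. A well was called cytotoxic when IncuCyte confluency fell below 70% of agonist controls in both mask sets.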
# RAW-Dual [2] = experiment: NF-kB SEAP reporter activity, fold change vs agonist alone; higher = enhanced NF-kB activity
# Procedure, shortened: as §1
# RAW-Dual [3] = experiment: NF-kB SEAP reporter activity, fold change vs agonist alone; cytotoxicity flag (confluency mask): not cytotoxic; higher = enhanced NF-kB activity
# Procedure, shortened: as §1
# [4] = agonist: ODN 1826 (TLR9) 0.5 ug/mL
# [5] = agonist: Pam2CSK4 (TLR2/6) 0.1 ug/mL
# [6] = agonist: Pam3CSK4 (TLR2/1) 0.1 ug/mL
# [7] = library stock concentration (final ~1000-fold dilution): 10 mM, cytotoxicity flag (confluency mask): not cytotoxic, agonist: Imiquimod (TLR7) […]
# [8] = library stock concentration (final ~1000-fold dilution): 10 mM, cytotoxicity flag (confluency mask): not cytotoxic, agonist: MPLA (TLR4) […]
smiles,measurement,setting,value
Cl.NC(=O)c1cnc(NC2CCCCC2N)nc1Nc1cccc(-n2nccn2)c1 (configuration not stated) (library stock concentration (final ~1000-fold dilution): 10 mM),NF-kB SEAP reporter activity,RAW-Dual [1]; agonist: LPS (TLR4) 0.1 ug/mL,0.377
same,NF-kB SEAP reporter activity,RAW-Dual [1]; [4],0.204
same,NF-kB SEAP reporter activity,RAW-Dual [1]; [5],0.315
same,NF-kB SEAP reporter activity,RAW-Dual [1]; [6],0.248
Cl.NC(=O)c1cnc(NC2CCCCC2N)nc1Nc1cccc(-n2nccn2)c1 (configuration not stated),NF-kB SEAP reporter activity,"RAW-Dual [2]; library stock concentration (final ~1000-fold dilution): 10 mM, cytotoxicity flag (confluency mask): cytotoxic (confluency <70% of control), agonist: Imiquimod (TLR7) […]",0.258
same,NF-kB SEAP reporter activity,"RAW-Dual [2]; library stock concentration (final ~1000-fold dilution): 10 mM, cytotoxicity flag (confluency mask): cytotoxic (confluency <70% of control), agonist: MPLA (TLR4) […]",0.336
COc1ccc(C(=C2C(=O)Nc3ccccc32)c2ccc(OC)cc2)cc1 (library stock concentration (final ~1000-fold dilution): 10 mM),NF-kB SEAP reporter activity,RAW-Dual [3]; agonist: LPS (TLR4) 0.1 ug/mL,1.04
same,NF-kB SEAP reporter activity,RAW-Dual [3]; [4],0.585
same,NF-kB SEAP reporter activity,RAW-Dual [3]; [5],0.692
same,NF-kB SEAP reporter activity,RAW-Dual [3]; [6],0.323
COc1ccc(C(=C2C(=O)Nc3ccccc32)c2ccc(OC)cc2)cc1,NF-kB SEAP reporter activity,RAW-Dual [2]; [7],0.748
same,NF-kB SEAP reporter activity,RAW-Dual [2]; [8],0.978
CCCN(CCC)S(=O)(=O)c1ccc(C(=O)O)cc1 (library stock concentration (final ~1000-fold dilution): 10 mM),NF-kB SEAP reporter activity,RAW-Dual [3]; agonist: LPS (TLR4) 0.1 ug/mL,1.13
same,NF-kB SEAP reporter activity,RAW-Dual [3]; [4],0.969
same,NF-kB SEAP reporter activity,RAW-Dual [3]; [5],1.11
same,NF-kB SEAP reporter activity,RAW-Dual [3]; [6],0.965
CCCN(CCC)S(=O)(=O)c1ccc(C(=O)O)cc1,NF-kB SEAP reporter activity,RAW-Dual [2]; [7],0.908
same,NF-kB SEAP reporter activity,RAW-Dual [2]; [8],1.07
O=c1[nH]c(=S)[nH]c(-c2ccccc2)c1Cc1c(O)ccc2ccccc12,NF-kB SEAP reporter activity,RAW-Dual [2]; [7],1.16
same,NF-kB SEAP reporter activity,RAW-Dual [2]; [8],1.19
O=c1[nH]c(=S)[nH]c(-c2ccccc2)c1Cc1c(O)ccc2ccccc12 (library stock concentration (final ~1000-fold dilution): 10 mM),NF-kB SEAP reporter activity,RAW-Dual [3]; agonist: LPS (TLR4) 0.1 ug/mL,1.17
same,NF-kB SEAP reporter activity,RAW-Dual [3]; [4],1.27
same,NF-kB SEAP reporter activity,RAW-Dual [3]; [5],1.03
same,NF-kB SEAP reporter activity,RAW-Dual [3]; [6],1.25
CCCC(CCC)C(N)=O,NF-kB SEAP reporter activity,RAW-Dual [2]; [8],1.18
CCCC(CCC)C(N)=O (library stock concentration (final ~1000-fold dilution): 10 mM),NF-kB SEAP reporter activity,RAW-Dual [3]; agonist: LPS (TLR4) 0.1 ug/mL,1.11
same,NF-kB SEAP reporter activity,RAW-Dual [3]; [4],1
same,NF-kB SEAP reporter activity,RAW-Dual [3]; [5],1.16
same,NF-kB SEAP reporter activity,RAW-Dual [3]; [6],0.876
CC(NC(=O)Cc1cc(F)cc(F)c1)C(=O)NC(C(=O)OC(C)(C)C)c1ccccc1 (configuration not stated),NF-kB SEAP reporter activity,RAW-Dual [2]; [7],1.14
same,NF-kB SEAP reporter activity,RAW-Dual [2]; [8],1.24
CC(NC(=O)Cc1cc(F)cc(F)c1)C(=O)NC(C(=O)OC(C)(C)C)c1ccccc1 (configuration not stated) (library stock concentration (final ~1000-fold dilution): 10 mM),NF-kB SEAP reporter activity,RAW-Dual [3]; agonist: LPS (TLR4) 0.1 ug/mL,1.34
same,NF-kB SEAP reporter activity,RAW-Dual [3]; [4],1.29
same,NF-kB SEAP reporter activity,RAW-Dual [3]; [5],1
same,NF-kB SEAP reporter activity,RAW-Dual [3]; [6],0.878
CC1CC2C3CCC4=CC(=O)C=CC4(C)C3(F)C(O)CC2(C)C1(O)C(=O)CO (configuration not stated),NF-kB SEAP reporter activity,"RAW-Dual [2]; library stock concentration (final ~1000-fold dilution): 1 mM, cytotoxicity flag (confluency mask): not cytotoxic, agonist: Imiquimod (TLR7) […]",1.18
same,NF-kB SEAP reporter activity,"RAW-Dual [2]; library stock concentration (final ~1000-fold dilution): 1 mM, cytotoxicity flag (confluency mask): not cytotoxic, agonist: MPLA (TLR4) […]",1.28
CC1CC2C3CCC4=CC(=O)C=CC4(C)C3(F)C(O)CC2(C)C1(O)C(=O)CO (configuration not stated) (library stock concentration (final ~1000-fold dilution): 1 mM),NF-kB SEAP reporter activity,RAW-Dual [3]; agonist: LPS (TLR4) 0.1 ug/mL,1.07
same,NF-kB SEAP reporter activity,RAW-Dual [3]; [4],1.16
same,NF-kB SEAP reporter activity,RAW-Dual [3]; [5],1.5
same,NF-kB SEAP reporter activity,RAW-Dual [3]; [6],1.12
O=C(O)c1cc2ccccc2c(Cc2c(O)c(C(=O)O)cc3ccccc23)c1O.OCCOCCN1CCN(C(c2ccccc2)c2ccc(Cl)cc2)CC1 (library stock concentration (final ~1000-fold dilution): 10 mM),NF-kB SEAP reporter activity,RAW-Dual [3]; agonist: LPS (TLR4) 0.1 ug/mL,0.958
same,NF-kB SEAP reporter activity,RAW-Dual [3]; [4],0.716
same,NF-kB SEAP reporter activity,RAW-Dual [3]; [5],1.03
same,NF-kB SEAP reporter activity,RAW-Dual [3]; [6],0.704
O=C(O)c1cc2ccccc2c(Cc2c(O)c(C(=O)O)cc3ccccc23)c1O.OCCOCCN1CCN(C(c2ccccc2)c2ccc(Cl)cc2)CC1,NF-kB SEAP reporter activity,RAW-Dual [2]; [7],1.24
same,NF-kB SEAP reporter activity,RAW-Dual [2]; [8],1.06
O=C(O)CSc1nnc(Br)n1-c1ccc(C2CC2)c2ccccc12 (library stock concentration (final ~1000-fold dilution): 10 mM),NF-kB SEAP reporter activity,RAW-Dual [3]; agonist: LPS (TLR4) 0.1 ug/mL,1.32
same,NF-kB SEAP reporter activity,RAW-Dual [3]; [4],1.01
same,NF-kB SEAP reporter activity,RAW-Dual [3]; [5],1.24
same,NF-kB SEAP reporter activity,RAW-Dual [3]; [6],1.18
O=C(O)CSc1nnc(Br)n1-c1ccc(C2CC2)c2ccccc12,NF-kB SEAP reporter activity,RAW-Dual [2]; [8],0.983
